About 18,000 (5.8%) of roughly 310,000 compounds were called active. This list was built around the results that the source calls inconclusive (neither active nor inactive); the mix of calls is not that of the screen. The call rests on the fitted dose curve; in most records, active means well fitted inhibition curve with a large enough effect; inconclusive means small, poorly fitted or top-dose-only effect, or another doubt; inactive means no such curve, though single readings can be large or run the other way. Potencies of inconclusive entries are left out as doubtful fits.
experiment: Primary qHTS for delayed death inhibitors of the malarial parasite plastid, 48 hour incubation; conditions: P. falciparum luciferase growth in erythrocytes; series mostly up to 28.7 µM
How it was run: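 Luciferase-expressing P. falciparum in infected erythrocytes (2% hematocrit, 0.1% parasitemia final) in RPMI 1640/0.5% Albumax were exposed to compound for 48 hours at 37 C, 5% CO2; growth read as luminescence.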
Potency means the concentration at half of the fitted maximal effect; tags describe the fitted curve by direction and shape.

Compound	Potency
COc1cccc(N2CC(O)=C(c3nc4ccccc4c(=O)[nH]3)C2=N)c1	inconclusive [inhibitor, single point]
CC(C)N(Cc1ccccc1)C(=O)CN1C(=O)NC2(CCCCCC2)C1=O	inconclusive [inhibitor, single point]
COCc1c(C(=O)Nc2ccc3nc(N4CCOCC4)sc3c2)oc2ccccc12	inconclusive [inhibitor, single point]
COc1cccc(NC(=O)C2C3C=CC4(O3)C2C(=O)N(CCCN2CCCCC2)C4C(=O)NC2CCCCC2)c1 (stereo not given)	inactive
COCCn1cnc2c1c(=O)n(CC(=O)OCC#N)c(=O)n2Cc1ccccc1	inconclusive [inhibitor, partial curve, poor fit]
COC(=O)Cc1ccc(NC(=S)NNC(=O)C2CC2)cc1	inactive
CC(Oc1ccccc1)C(=O)Nc1ccc(S(=O)(=O)N2CCN(C)CC2)cc1 (stereo not given)	inconclusive [inhibitor, single point]
Cc1ccc(C(=O)Nc2cccc(-c3nc4ncccc4o3)c2)cc1	inconclusive [inhibitor, single point]
CC(=O)Nc1sc2c(c1C#N)CCN(Cc1ccccc1)C2	inactive
COc1cc(CN(C(=O)c2ccco2)c2ccc(C)cc2)ccc1O	active: 11.7 µM
Cc1cccc(C)c1NC(=O)CNC(=O)C(C)N1CCCCC1 (stereo not given)	inconclusive [inhibitor, single point]
COc1cc2c(cc1OC)C(C)N(C(=O)Nc1ccc(F)cc1)CC2 (stereo not given)	inactive
CCCOc1c(OC)cccc1C1CC(=O)Nc2cc3c(cc21)OCO3 (stereo not given)	inconclusive [inhibitor, partial curve]
CC(C)Cn1c(SCC#N)nc2ccccc2c1=O	inactive
CCCC(=O)Oc1ccc(N(C(=O)CCC)S(=O)(=O)c2cccs2)cc1	inactive
COc1cc(Cl)c(C)cc1NC(=O)c1cc(S(=O)(=O)N(C)C)ccc1N1CCCC1	active: 4.65 µM
COc1cc(NC(=O)Cc2ccccc2)ccc1NC(=O)c1ccco1	inactive
CN(CC(=O)NCc1ccco1)S(=O)(=O)c1ccc(F)cc1	inactive
O=C(c1ccco1)N1N=C(c2ccc(Cl)cc2)CC1c1ccco1 (stereo not given)	inconclusive [inhibitor, single point]
Cc1ccc(C(O)P(=O)(Oc2ccccc2)Oc2ccccc2)cc1 (stereo not given)	inconclusive [inhibitor, partial curve, poor fit]
Oc1ccc(Cl)cc1-c1cc(C(F)(F)C(F)F)nc(-c2ccccc2)n1	active: 1.31 µM
COc1cc(/C=N/NC(N)=O)ccc1OCC(=O)N1C(C)CCCC1C (stereo not given)	inactive
Cc1ccccc1NC(=S)c1nc2ccccc2[nH]1	active: 3.29 µM
CC1CN(C)C(C)C/C1=N\Oc1ccc([N+](=O)[O-])cc1 (stereo not given)	inactive

Compound	Potency
CCCC(c1nnnn1C(C)(C)CC)N(CCCO)Cc1cc2cc(C)cc(C)c2[nH]c1=O (stereo not given)	inconclusive [inhibitor, single point]
CCCCN1C(=S)SC(C)(C)C1/[N+]([O-])=C/c1ccc(S(=O)(=O)NC)cc1 (stereo not given)	inactive
COc1ccc(-n2cc(CNCCc3cscn3)c(-c3ccccc3Cl)n2)cc1	inconclusive [inhibitor, partial curve]
COc1ccccc1NC(=O)/C(=C\c1cccs1)NC(=O)c1ccco1	inconclusive [inhibitor, partial curve, poor fit]
C=CCN1C(=O)NC(=O)/C(=C/C=C/c2ccccc2)C1=O	inactive
CC1(C)C(=O)Nc2ccccc2N1C(=O)COC(=O)c1cc([N+](=O)[O-])ccc1N	inconclusive [inhibitor, single point]
COc1ccc(NC(=O)CSc2nc3c(sc4ccccc43)c(=O)n2CCCN2CCCC2)cc1	active: 13.1 µM
CCn1nc(C(=O)OC(C(=O)c2c[nH]c3ccccc23)c2ccccc2)c2ccccc2c1=O (stereo not given)	inactive
Oc1ccc(N=Cc2ccc(-c3cccs3)s2)cc1	inconclusive [inhibitor, single point]
COc1ccc(P(=O)(COc2ccc([N+](=O)[O-])cc2)c2ccc(OC)cc2)cc1	inconclusive [inhibitor, single point]
CCOc1ccc(NC(=O)C(CC(=O)O)Cc2ccc(C)cc2)cc1 (stereo not given)	inactive
CC(C)CN=C(NS(=O)(=O)c1ccccc1)C(Cl)(Cl)Cl	active: 2.62 µM
Cc1cc(OCC(=O)NCc2ccncc2)c2c3c(c(=O)oc2c1)CCC3	inconclusive [inhibitor, single point]
O=S(=O)(c1ccccc1)[C@@]1(c2ccccc2)C[C@@H]2ON=C(c3cccc(-c4ccccc4)c3)[C@@H]2C1	active: 7.38 µM
CCN(Cc1cc(=O)n2cc(Cl)c(C)c(Cl)c2n1)Cc1nc2ccccc2c(=O)[nH]1	inconclusive [inhibitor, partial curve, poor fit]
COc1ccc2c(c1)c(CCN)c(C)n2Cc1ccccc1	inconclusive [inhibitor, single point]
CC(=O)C1=C(c2ccc(Br)cc2)C(=O)c2ccccc2C1=O	inconclusive [inhibitor, full curve]
CCCC(=O)Nc1cccc(S(=O)(=O)N(C)c2ccccc2)c1	inactive
O=C(CSc1nnc(-c2ccc(O)cc2)n1Cc1ccco1)N1CCc2ccccc2C1	inconclusive [inhibitor, partial curve, poor fit]
COc1cccc(NC(=O)CN(C)C(=O)c2cccc(S(=O)(=O)Nc3ccc(C)cc3)c2)c1	inconclusive [inhibitor, single point]
CCN(c1ccccc1)S(=O)(=O)c1ccc(OC)c(NC(=O)c2cc(Cl)ccn2)c1	inconclusive [inhibitor, single point]
Cc1ccccc1NS(=O)(=O)c1cc(C(=O)N2CCc3ccccc3C2)ccc1C	inconclusive [inhibitor, single point]
COc1ccc(NC(=O)C2CCN(S(=O)(=O)c3c(C)noc3/C=C/N(C)C)CC2)cc1	inconclusive [inhibitor, partial curve, poor fit]
Cc1cccc(/C=C2/C(=O)/C(=C/c3ccccc3C)C3CCC2N3C)c1 (stereo not given)	inconclusive [inhibitor, single point]

Compound	Potency
Cc1[nH]c2ccccc2c1-c1nc(N)sc1C	inactive
Cc1cc(C)nc(SCC(=O)Nc2ncc(Cc3cccc(Cl)c3Cl)s2)n1	inactive
Cc1ccc(Nc2ncc3c(n2)CC(c2ccco2)CC3=O)c(C)c1 (stereo not given)	inconclusive [inhibitor, single point]
COc1ccccc1N1CCN(C2CCCN(Cc3cccc(O)c3)C2)CC1 (stereo not given)	inconclusive [inhibitor, partial curve, poor fit]
CCC(C(=O)NCCc1c[nH]c2ccc(C)cc12)c1ccccc1 (stereo not given)	inconclusive [inhibitor, partial curve]
Cn1c(=O)c(C=Nc2ccccc2)c(O)c2ccccc21	inconclusive [inhibitor, single point]
CC(Sc1nnc(C2CC2)n1C)C(=O)Nc1ccc(N2CCOCC2)cc1 (stereo not given)	inactive
COc1ccccc1NC(=O)C(=O)NCCC1CCCCN1S(=O)(=O)c1ccc(F)cc1 (stereo not given)	inconclusive [inhibitor, partial curve, poor fit]
COc1ccc(C(=O)O/N=C(\N)c2ccncc2)cc1OC	inconclusive [inhibitor, single point]
O=C(NCc1ccco1)c1cc(-c2ccccc2)nc2ccccc12	inconclusive [inhibitor, single point]
Cc1nnc(NC2=NCCC2)o1	inactive
Oc1ccccc1C1Nc2cccc3cccc(c23)N1	active: 13.1 µM
CC(C)OP(=O)(c1ccc(N(C)C)cc1)C(O)c1ccncc1 (stereo not given)	inconclusive [inhibitor, full curve, poor fit]
Cc1cc(OCc2cc(C(=O)N(C)CCCN3CCOCC3)no2)cc(C)c1Cl	inconclusive [inhibitor, partial curve, poor fit]
O=C(CSc1ncccc1-c1nc2ccccc2[nH]1)NC1CC1	inactive
Cn1c(N)c(C(=O)CSc2nnc(-c3ccccc3F)n2N)c(=O)n(C)c1=O	inconclusive [inhibitor, single point]
NC(=O)c1cccc(-c2cc(Nc3ccc(OC(F)(F)F)cc3)ncn2)c1	active: 13.1 µM
CCn1c(SCC(=O)c2cc(C)n(-c3ccc(C(=O)OC)cc3)c2C)nnc1-c1cccnc1	inconclusive [inhibitor, single point]
CCOC(=O)C1CCN(c2cc3c(cc2NC(=O)c2ccccc2OCC)n(C)c(=O)n3C)CC1	inconclusive [inhibitor, full curve]
COc1ccc(NCc2nnc(SCC(=O)NCc3ccco3)n2-c2ccccc2OC)cc1	inconclusive [inhibitor, single point]
COc1ccc(CCC(=O)OCC(=O)Nc2ccc(OC)c(OC)c2)cc1OC	inconclusive [inhibitor, partial curve, poor fit]
CCOC(=O)/C=c1\s/c(=C\c2c(OCC)ccc3ccccc23)c(=O)n1CC(=O)NCC1CCCO1 (stereo not given)	active: 11.7 µM

Reference: PubChem BioAssay AID504832 (National Center for Advancing Translational Sciences (NCATS), 2011)
